Synthetic gut communities (20 or 21 species) grown anaerobically with drug for 24 h at the dose given, then challenged with the named pathogen. Pathogen growth (luminescence, or colony counts for V. cholerae) or community OD578 as fold of untreated communities, mean of three; above 1 = more growth. No active / inactive call.
Tests used:
[1] = tested on: Salmonella enterica Typhimurium in Com20; assay: S. Typhimurium luminescence in drug-pretreated Com20 relative to untreated Com20 (fold of untreated control); higher = more pathogen expansion
[2] = tested on: Com20 synthetic gut community; assay: Com20 community biomass OD578 after 24 h drug treatment relative to untreated (fraction of untreated control); higher = more community growth
[3] = tested on: Shigella flexneri 24570 (community: Com20); assay: pathogen growth (luminescence or CFU) in drug-pretreated community relative to untreated community (fold of untreated control); higher = more pathogen expansion
[4] = tested on: Yersinia pseudotuberculosis YPIII (community: Com20); assay: as above
[5] = tested on: Salmonella enterica Typhimurium (community: Com21 (Com20 + E. coli ED1a)); assay: as above
[6] = tested on: Yersinia enterocolitica WA-314 (community: Com20); assay: as above
[7] = tested on: Escherichia coli CFT073 (community: Com20); assay: as above
[8] = tested on: Vibrio cholerae A1552 (community: Com20); assay: as above
[9] = tested on: Klebsiella pneumoniae MKP103 (community: Com20); assay: as above

O=c1[nH]c(=O)n([C@H]2C[C@H](O)[C@@H](CO)O2)cc1F [Floxuridine]
Conditions | Com20 community biomass OD578, [2] | S. Typhimurium luminescence, [1] | pathogen growth, [3] | pathogen growth, [4] | pathogen growth, [5] | pathogen growth, [6] | pathogen growth, [7] | pathogen growth, [8] | pathogen growth, [9]
drug pretreatment concentration 10 µM | 0.95 | 10.1 | 13.7 | 4.24 | 2.95 | 3.81 | 6.55 | 5.63 | 6.83
drug pretreatment concentration 20 µM | 0.885 | 9.29 | 29.6 | 6.7 | 3.22 | 6.75 | 10.8 | 6.2 | 13.1
drug pretreatment concentration 40 µM | 0.893 | 5.45 | 33.2 | 12.4 | 3.7 | 11.9 | 12.8 | 9.48 | 14.4
drug pretreatment concentration 80 µM | 0.853 | 3.9 | 15.9 | 14.6 | 3.89 | 12.4 | 8.61 | 6.28 | 7.25
drug pretreatment concentration 100 µM | – | – | 14.7 | 16.5 | – | 15.4 | 9.48 | 8.75 | 8.57
drug pretreatment concentration 160 µM | 0.883 | 1.71 | – | – | 4.6 | – | – | – | –

CC(C)(C)c1ccc(C(O)CCCN2CCC(C(O)(c3ccccc3)c3ccccc3)CC2)cc1 (centres undefined) [Terfenadine]
Conditions | Com20 community biomass OD578, [2] | S. Typhimurium luminescence, [1] | pathogen growth, [3] | pathogen growth, [4] | pathogen growth, [5] | pathogen growth, [6] | pathogen growth, [7] | pathogen growth, [8] | pathogen growth, [9]
drug pretreatment concentration 10 µM | 0.977 | 1.03 | 1.03 | 0.829 | 0.875 | 1.06 | 1.52 | 1.06 | 1.39
drug pretreatment concentration 20 µM | 0.924 | 0.646 | 0.927 | 0.799 | 0.833 | 1.25 | 1.41 | 0.794 | 1.47
drug pretreatment concentration 40 µM | 0.746 | 1.03 | 2 | 2.52 | 1.54 | 2.18 | 1.6 | 1.26 | 1.91
drug pretreatment concentration 80 µM | 0.658 | 1.53 | 2.94 | 4.15 | 3.3 | 3.81 | 1.51 | 1.31 | 2.5
drug pretreatment concentration 100 µM | – | – | 10.3 | 9.38 | – | 7.87 | 7.14 | 5.4 | 6.03
drug pretreatment concentration 160 µM | 0.03 | – | – | – | 6.7 | – | – | – | –

COc1cc(C(=O)NS(=O)(=O)c2ccccc2C)ccc1Cc1cn(C)c2ccc(NC(=O)OC3CCCC3)cc12 [Zafirlukast]
Conditions | Com20 community biomass OD578, [2] | S. Typhimurium luminescence, [1] | pathogen growth, [3] | pathogen growth, [4] | pathogen growth, [5] | pathogen growth, [6] | pathogen growth, [7] | pathogen growth, [8] | pathogen growth, [9]
drug pretreatment concentration 10 µM | 1.03 | 0.606 | 1.33 | 0.247 | 0.533 | 0.661 | 2.82 | 0.788 | 1.08
drug pretreatment concentration 20 µM | 1.02 | 0.455 | 1.28 | 0.225 | 1.61 | 0.905 | 2.49 | 0.88 | 1.76
drug pretreatment concentration 40 µM | 0.935 | 0.472 | 0.381 | 0.065 | 1.28 | 0.145 | 1.92 | 1.01 | 0.902
drug pretreatment concentration 80 µM | 0.848 | 0.431 | 0.486 | 0.159 | 1.24 | 0.155 | 1.8 | 0.779 | 1.05
drug pretreatment concentration 100 µM | – | – | 0.322 | 0.136 | – | 0.23 | 1.79 | 1.04 | 0.891
drug pretreatment concentration 160 µM | 0.887 | 0.506 | – | – | 1.53 | – | – | – | –

— the supplement of paper PMC12350171
